The structures appear in SMILES notation. “And” between values parts separate entries of the source, which are not always exact repeats. Identical values can stand only once.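 Tested at 5 concentrations; 48 h exposure; 96-well plates; endpoints linearly interpolated, else capped at highest concentration. The concentration for 50% growth inhibition is given as GI50. Definition used: TGI = concentration required for complete inhibition of growth.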 Square brackets hold non-standard residues; d marks the D form. Peptide text beside a SMILES is read from it. * marks the point of attachment. NMeV = CN[C@H](C(=O)O)C(C)C; X25 = COc1ccc(CN*)c(OC)c1; Octanoyl = CCCCCCCC(=O)*; dNMeA = CN[C@H](C)C(=O)O

For the assay, the system named is NCI-H322M lung. Briefly: growth of human tumour cells (NCI), 48 h.
`CN=c1ccc2nc3ccc(N)cc3sc-2c1`: the GI50 is 6.35 µM and the TGI was 39.8 µM.
Compound `Cc1c(/C=N/N=C/c2[nH]c(C(=O)OC(C)(C)C)c(C)c2C)[nH]c(C(=O)OC(C)(C)C)c1C` returned a TGI of more than 100 µM.
Consider `O=[N+]([O-])c1ccc(C=Cc2ccccc2)cc1.[C-]#[O+].[C-]#[O+].[C-]#[O+].[Cr]`, for which the GI50 is 27.3 µM and the TGI is more than 100 µM.
For `Cc1ccc(NC(Nc2ccc(C)cc2C)=C(/C=C(\Cl)[N+](=O)[O-])[N+](=O)[O-])c(C)c1`, the TGI is 29.2 µM.
In turn, `COC(=O)C1CC2CC(=NNC(N)=O)CC2C1` (stereo not drawn) yielded a TGI of more than 100 µM.
As for `Cn1c(=O)c2[nH]c(CCNC(=O)c3ccccc3)nc2n(C)c1=O`, the TGI is more than 100 µM.
On to `C[n+]1ccc(/C2=C3\C=CC(=N3)/C(c3cc[n+](C)cc3)=c3/cc/c([nH]3)=C(\c3cc[n+](C)cc3)C3=N/C(=C(/c4cc[n+](C)cc4)C4C=CC2N4)C=C3)cc1`, for which the TGI is more than 100 µM.
For the compound `COc1cc2c(cc1OCCCn1c(-c3ccccn3)nc3ccccc31)N=C[C@@H]1CCCN1C2=O`, the GI50 is 3.5 µM and the TGI is more than 26.1 µM.
The matching figures for `C[C@@H]1CN(Cc2ccc(F)cc2)[C@@H](C)CN1C(=O)c1cc2c(C(=O)C(=O)N(C)C)cn(C)c2cc1Cl`: 20.9 µM and 66.4 µM.
On to `COC1C=COC2(C)Oc3c(C)c(O)c4c(c3C2=O)/C(=N/C2CCC(O)OC2C)C=C(NC(=O)/C(C)=C\C(=O)C2CC2C(O)C(C)C(O)C(C)C(OC(C)=O)C1C)C4=O` (stereo not drawn), for which the TGI turned out to be 10.7 µM.
For the compound `O=C1C=CC2(C=C1)O[C@H](Cc1ccccc1)[C@@H](Cc1ccccc1)O2`, the TGI is 26.1 µM.
Turning to `COc1cccc(OC(=O)c2ccc(C(F)(F)F)nc2Nc2cc(Cl)ccc2C)c1`, the GI50 was 21.4 µM and the TGI was 95 µM.
`O=C1CC(c2c[nH]c3ccccc23)C(=O)N1` (stereo not drawn): the TGI is more than 100 µM.
The same measure, in the same setting: the value for `COC(=O)[C@H](CCSC)NC(=O)N[C@H](C)c1ccccc1` was more than 100 µM; that for `N#CC(=C1C=CC(=NO)C=C1)c1ccc(Cl)cc1` was more than 100 µM; that for `CCN1C(=O)c2cc(OC)c(OC)cc2C(=O)C12OC(=O)c1cc3c(cc12)OCO3` (stereo not drawn) was more than 100 µM.
`COc1ccc(-c2nc(Nc3cc(C)[nH]n3)c3ccccc3n2)cc1`: the GI50 is 3.21 µM and the TGI was more than 81.2 µM.
As for `NC(=O)c1csc(C2OC(CO)C(O)C2O)n1` (stereo not drawn), the GI50 was > 95.7 µM and 70.3 µM; the TGI is more than 10000 µM.
With `CS(=O)(=O)OCC1CN(S(C)(=O)=O)c2cc(O)ccc21` (stereo not drawn), the TGI amounted to 30.4 µM.
`O=C(CCl)NNC1=Nc2ccc(Cl)cc2SC1` gave a TGI of 10.1 µM.
The same measure, in the same setting: the value for `Cc1cc(S(=O)(=O)Nc2nc3ccccc3nc2-c2cccc([N+](=O)[O-])c2)c(S)cc1Cl` was 40.1 µM.
As to `CN[C@@H](C)C(=O)N[C@H](C(=O)N1CCC[C@H]1C(=O)Nc1sc(-c2ncco2)nc1-c1ccccc1)C1CCCCC1`, the GI50 was 36.8 µM and the TGI was more than 100 µM.
The compound `C#C[C@]1(O)CCCC2=CC(=O)CC[C@@]21C` gave a TGI of more than 100 µM.
The compound `CSc1nc2c(c(=O)[nH]1)N=C(c1ccc([N+](=O)[O-])cc1)CC(c1ccccc1)N2` (stereo not drawn) came in with a TGI of more than 100 µM.
Still for that read-out and setting: to `COC1=CC(=O)C2=C(C1=O)[C@H]1CC[C@]3(C)[C@@H](O)CC[C@H]3[C@@H]1CC2` belongs 30.4 µM.
Still for that read-out and setting: to `N#C[C@H](OC1OC(COC2OC(CO)C(O)C(O)C2O)C(O)C(O)C1O)c1ccccc1` (stereo partly drawn) belongs more than 250 µM; to `CC1(/C=C/CCSc2ccccc2)CC(=O)C2CC1C2(C)C` (stereo not drawn), more than 100 µM.
Take `CNCCCNCCCCNCCCN1C(=O)c2ccc3c4c(ccc(c24)C1=O)C(=O)N(CCCNCc1ccccc1OC)C3=O`: the GI50 is 2.21 µM and the TGI is 24.6 µM.
`NC(N)=NCC[C@H](NC(=O)OCCCCCn1ccc(=O)[nH]c1=O)C(=O)O` displayed a TGI of more than 100 µM.
On to `O=C(NN1C(=O)CSC12CCCCC2)c1[nH]c2ccc(Br)cc2c1-c1ccccc1`, for which the GI50 was 27.6 µM and the TGI worked out at 79.7 µM.
Regarding `COC(=O)C1(C)CCc2c(OC)ccc(OC)c2C1=O` (stereo not drawn), the TGI is more than 100 µM.
`COc1cc2c3c(c1)CCCN3CCC2` came in with a TGI of more than 10 µM.
Turning to `N#CC(C#N)=C1NC(=O)CC(=O)N1`, the TGI was more than 100 µM.
Same read-out and setting: the value for `CC(=O)C1C(=O)C(=O)N(c2cccc([N+](=O)[O-])c2)C1=O` (stereo not drawn) was more than 100 µM; that for `CCCCCCCC(=O)N[C@H](C(=O)N[C@H](C(=O)N(C)[C@H](C(=O)N1CCC[C@H]1C(=O)N(C)[C@H](C)C(=O)NCc1ccc(OC)cc1OC)C(C)C)C(C)C)C(C)C` (Octanoyl-VV[NMeV]P[dNMeA]-X25) was more than 100 µM; that for `COc1cc2c(cc1OC)C1C=NC(C2)c2cc(OC)c(OC)cc21` (stereo not drawn) was more than 100 µM.
Take `CCc1ccc2c(c1)N(CCO)C1=C(C(=O)OC1)C2c1cccc(Br)c1` (stereo not drawn): the GI50 was 1.67 µM and the TGI turned out to be 20.1 µM.
Take `O=C1NC(=O)C(N2C(=O)c3ccccc3C2=O)CC1O` (stereo not drawn): the GI50 is more than 100 µM and the TGI is more than 100 µM.
Consider `OCCNCCN1CCN(CCCN2c3ccccc3Sc3ccc(C(F)(F)F)cc32)CC1`, for which the TGI amounted to 41.8 µM.
Turning to `COC(=O)[C@@H]1[C@H](OC(C)=O)CCC2[C@@]3(C[C@@H](c4ccoc4)O[C@@H]3OC)[C@H](C)CC[C@]21C(=O)OC` (stereo partly drawn), the TGI is more than 25 µM.
`C=C(Br)CNC(=O)Nc1ccc(Cl)c(Cl)c1` showed a TGI of 60.2 µM.
Still for that read-out and setting: to `CN(C)CCCN1c2ccccc2Sc2ccc3ccccc3c21` belongs 24.9 µM.
Turning to `COc1ccc2c(c1)N(CCO)C1=C(C(=O)OC1)C2c1cccc(F)c1` (stereo not drawn), the GI50 was 2.01 µM and the TGI is more than 50 µM.
Compound `Cc1cc(C)c(-n2[nH]c(=O)n(C)c2=O)c(C)c1` came in with a TGI of more than 100 µM.
Same read-out and setting: to `COC(=O)c1onc(-c2c(OC)cc(OC)cc2OC)c1C(=O)OC` belongs more than 100 µM; to `COCc1nc(N)nc(N2N=C(C)CC2(C)C)n1`, more than 100 µM.
In turn, `O=C(CSc1nnc(Cc2ccccc2)o1)Nc1ccccc1` returned a TGI of more than 100 µM.
`C=CCC1(OCc2ccccc2)C(=O)C(=O)OC1C1COC(C)(C)O1` (stereo not drawn) yielded a TGI of more than 100 µM.
On the same count and under the same terms, the value for `CN(C)c1ccc(C(Cc2ccccc2)C2NC(=S)NC2=O)cc1` (stereo not drawn) was more than 100 µM.
Same read-out and setting: to `Cc1n[nH]c(=O)n1N1C(=O)CCCC1=O` belongs more than 100 µM.
Compound `O=c1nc(NC2CCCCO2)ccn1CCO` (stereo not drawn) gave a TGI of more than 100 µM.
Consider `COc1ccc(C2SCC(=O)N2c2ccc(-c3ccc(-n4c(-c5ccccc5)nc5ccccc5c4=O)cc3)cc2)cc1OC` (stereo not drawn), for which the TGI was 34.4 µM.
With `N#Cc1c(N2CCOCC2)nc(=S)[nH]c1-c1ccco1`, the GI50 was 11 µM and the TGI is more than 100 µM.
The corresponding values for `O=C1c2cccnc2C(=O)c2c1c(C(=O)NCCCN1CCCCC1)c1ccccn21` are 0.997 µM and 5.81 µM.
The matching figures for `COc1ccc2cc1Oc1ccc(cc1)C[C@H]1c3c(cc4c(c3Oc3cc5c(cc3OC)CCN(C)[C@@H]5C2)OCO4)CCN1C`: 5.72 µM and 16.3 µM.
The matching figures for `O=C1C(=C([O-])c2ccccc2)C(=O)c2ccccc21.O=C1C(=C([O-])c2ccccc2)C(=O)c2ccccc21.[Fe+2]`: 77.4 µM and more than 100 µM.
With `CN1CCN(C(=O)c2cc(-c3ccc4ncnc(N5CCc6cc(F)c(Cl)cc65)c4c3)cnc2N)CC1`, the GI50 is 0.269 µM and the TGI turned out to be 3.04 µM.
The matching figures for `CCOc1ccccc1C(=O)N1CCN(c2cc(Cl)cc(Cl)c2)CC1`: 0.0706 µM and 18.7 µM.
`CCN1CCC(C)OP1(=O)Cc1ccccc1` (stereo not drawn) showed a TGI of more than 100 µM.
As to `CC(C)C[C@H](NC(=O)CNC(=O)c1cc(Cl)ccc1Cl)B1OC(=O)CC(CC(=O)O)(C(=O)O)O1` (stereo partly drawn), the GI50 is 5.33 µM and the TGI came out at 67.4 µM.
On to `N#Cc1sc2c(c1OC(=O)c1ccccc1)c(=O)n(-c1ccccc1)c(=S)n2-c1ccccc1`, for which the TGI amounted to 86.4 µM.
On the same count and under the same terms, the value for `COc1c(Br)cc2c(c1OC)C(Br)CCC(Br)(Br)C2=O` (stereo not drawn) was 12.7 µM; that for `O=C(Nc1nc2ccc([N+](=O)[O-])cc2s1)C(=O)C(C(=O)c1ccccc1F)C1OC(=O)c2ccccc21` (stereo not drawn) was more than 100 µM.
Same read-out and setting: the value for `COc1cc(C2SCC(=O)N2c2cccc(Cl)c2)cc(OC)c1OC` (stereo not drawn) was more than 100 µM.
`O=S(=O)(Nc1cc(Sc2cccc3cccnc23)c(O)c2ccccc12)c1ccc(F)cc1`: the GI50 is 2.43 µM and the TGI was 11.4 µM.
Compound `CC1(O)C=CC(=O)C=C1` yielded a TGI of more than 59 µM.
Still for that read-out and setting: to `O=C1c2ccccc2-c2cc([N+](=O)[O-])c([N+](=O)[O-])cc21` belongs 24.6 µM.
`O=C1OCC2=C1C(c1ccc(Cl)c(Cl)c1)c1cc3c(cc1N2CCO)OCCO3` (stereo not drawn): the GI50 was 0.585 µM and the TGI was more than 50 µM.
Regarding `COc1cc2c(cc1C1COc3cc4occc4cc3C1=O)OCO2` (stereo not drawn), the TGI was more than 100 µM.
As for `OCC1OC(n2cnc3c(N/N=C\c4ccccn4)ncnc32)C(O)C1O` (stereo not drawn), the GI50 is 0.135 µM and the TGI was 4.81 µM.
`O=C1OC2(CC1C1(O)C3CC4CC(C3)CC1C4)C1CC3CC(C1)CC2C3` (stereo not drawn): the TGI was more than 100 µM.
In the case of `CCN(CC)CC1CCCCN1CC(=O)N1c2ccccc2C(=O)Nc2cccnc21` (stereo not drawn), the TGI is more than 100 µM.
Still for that read-out and setting: the value for `NC(CSC1c2ccccc2-c2ccccc21)C(=O)O` (stereo not drawn) was more than 100 µM.
In the case of `O=C(OCc1ccc2ccccc2n1)c1cn(C2CC2)c2cc(N3CCN(Cc4ccc5ccccc5n4)CC3)c(F)cc2c1=O`, the GI50 was more than 81.2 µM and the TGI was more than 100 µM.
In turn, `Cc1ccc(C2OC(COCc3ccc(Cl)cc3)C(OCc3ccc(Cl)cc3)C2O)cc1` (stereo not drawn) returned a TGI of 60.8 µM.
Same read-out and setting: the value for `C=CC[C@@H](N)C(=O)N(C)[C@@H](C)[C@@H](O)c1ccccc1` was more than 100 µM.
For `N#CC1(C(N)=O)C(c2ccc(Cl)cc2)CC(=O)CC1c1ccc(Cl)cc1` (stereo not drawn), the GI50 was 17.3 µM and the TGI came out at 39.1 µM.
Consider `CCCCCCCCCCCCCCCCCC1=NCCN1CCOC1=C(Cl)C(=O)c2ccccc2C1=O`, for which the GI50 was 3.5 µM and the TGI was determined as 12 µM.
In turn, `O=C(O)c1ccc(C(=O)c2ccccc2)c(C(=O)O)c1` had a TGI of more than 100 µM.
`O=C(O)C12C3CCC(CC3)C1(C(=O)O)C1CCC2C1` (stereo not drawn) showed a TGI of more than 100 µM.
The same measure, in the same setting: to `N#CC1C(=O)NC23CCCCC2C1c1ccccc1O3` (stereo not drawn) belongs more than 100 µM.
With `NNC(=O)CS(=O)(=O)Nc1ncccn1`, the TGI is more than 100 µM.
